Experimental data taken from PMC5983756 (2018).

Molecular target: T1, purified D1 domain of FGFR1 fused to GST (GST-FGFR1.D1 25-124) (Homo sapiens (Human), UniProt P11362)
T1 chain: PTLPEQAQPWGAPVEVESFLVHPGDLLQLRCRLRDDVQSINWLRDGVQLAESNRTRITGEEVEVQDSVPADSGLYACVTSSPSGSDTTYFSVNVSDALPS
Test: SPR

- binding result: no binding
B1: Recombinant FGF1 (Met-Ala-FGF1 […]) (protein)
chain: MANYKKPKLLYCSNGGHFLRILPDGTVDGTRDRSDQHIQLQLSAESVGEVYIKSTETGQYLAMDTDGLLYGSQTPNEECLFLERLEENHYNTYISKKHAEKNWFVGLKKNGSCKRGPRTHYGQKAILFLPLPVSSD
